PubChem BioAssay AID624417 (National Center for Advancing Translational Sciences (NCATS), 2012)
About 6,400 (1.6%) of roughly 410,000 compounds were called active. The shares of active, inactive and inconclusive entries below differ from those in the screen. Calls come from the whole dose curve; as a rule, active = well fitted inhibition curve with a large enough effect; inconclusive = small, poorly fitted or top-dose-only effect; inactive = no such curve, though single readings can be large or run the other way. Potencies of inconclusive entries are left out as doubtful fits.

These compounds were tested against Glucagon-like peptide 1 receptor (Homo sapiens) (UniProt P43220) (assay: qHTS of GLP-1 Receptor Inverse Agonists (Inhibition Mode)). Details: HEK293 GLP-1R CRE-luciferase, luminescence, 24 h, GLP-1R form is constitutively active; activity change, negative = inhibition: at 38.3 µM (top of the series) unless noted.
Procedure, shortened: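 Constitutively active GLP-1R drives a cAMP-responsive luciferase in stably transfected HEK293 cells; test compounds are added after overnight (12 h) attachment and left 24 hr, and signal loss in luminescence marks inhibition.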
% is set by controls: 0 for no effect and ±100 for the full control effect; potency is the fitted concentration of half-maximal effect; tags give direction and shape of the fitted curve.
Note: nearly all actives have a fitted effect of over 55% in size.

Sequence of UniProt P43220 (P43220 whole entry, looked up): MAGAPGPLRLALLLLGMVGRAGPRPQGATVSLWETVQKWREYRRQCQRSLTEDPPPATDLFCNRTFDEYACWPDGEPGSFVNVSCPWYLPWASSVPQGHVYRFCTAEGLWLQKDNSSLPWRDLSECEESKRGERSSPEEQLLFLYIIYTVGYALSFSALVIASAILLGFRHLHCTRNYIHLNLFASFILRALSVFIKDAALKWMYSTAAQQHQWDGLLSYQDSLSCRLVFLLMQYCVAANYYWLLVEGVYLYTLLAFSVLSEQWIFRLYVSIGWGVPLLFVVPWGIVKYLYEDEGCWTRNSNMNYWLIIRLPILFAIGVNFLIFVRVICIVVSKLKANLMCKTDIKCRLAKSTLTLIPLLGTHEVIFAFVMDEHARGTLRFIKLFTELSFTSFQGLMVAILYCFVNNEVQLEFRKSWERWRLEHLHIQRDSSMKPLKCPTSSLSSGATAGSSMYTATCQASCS

Question: With `CN(C(=O)c1cccc(Cl)c1)C1CCCN(Cc2ccccc2F)C1` (stereo not drawn) as the compound, how does the Potency read?
Answer: Its Potency is inconclusive [inhibitor, partial curve].

Question: `COc1cc(OC)c(N(C)S(=O)(=O)c2cccc(C(=O)OCC(=O)NCc3ccco3)c2)cc1Cl` was tested. Which Potency did it give?
Answer: The Potency was inconclusive [inhibitor, partial curve, poor fit].

Question: How did the Potency turn out when `CSc1nc2nc(Cl)c(Cl)nc2[nH]1` was run?
Answer: Its Potency is inconclusive [inhibitor, single point].

Question: `Cc1cccc(S(=O)(=O)NC(=O)C2(C)CCN2C(=O)c2c(C)noc2C)c1` (stereo not drawn) was tested. Which “activity change, negative = inhibition” value did it give?
Answer: Its value is inactive: 23%.

Question: For `COc1ccc(CCNC(=O)C(=O)NCC2OCCCN2S(=O)(=O)c2cc(C)ccc2C)cc1` (stereo not drawn), which Potency is on record?
Answer: The Potency was inconclusive [inhibitor, partial curve, poor fit].

Question: With `CCC(C)N(CC(=O)Nc1cccc(C)c1C)C(=O)CCl` (stereo not drawn) as the compound, how does the Potency read?
Answer: The Potency was inconclusive [inhibitor, full curve, poor fit].

Question: With `CCC(C)NC(=O)COC(=O)c1csc2c1CCCC2` (stereo not drawn) as the compound, how does the Potency read?
Answer: The Potency was inconclusive [inhibitor, partial curve, poor fit].

Question: For `CC(=O)c1c(OC(=O)c2cccc(Cl)c2)c2ccccc2n1C`, which Potency is on record?
Answer: Its Potency is inconclusive [inhibitor, single point].

Question: With `CCn1c(SCC(=O)N/N=C(\C)c2ccncc2)nnc1-c1ccc(C)cc1` as the compound, how does the Potency read?
Answer: The Potency was inconclusive [inhibitor, single point].

Question: For `CN(C[C@H](Cc1ccccc1)N(C[C@@H](CC1CCCCC1)N(CCc1ccccc1)N=O)N=O)N=O`, which “activity change, negative = inhibition” value is on record?
Answer: The value was inactive: 9.94%.

Question: How did the Potency turn out when `C#Cc1ccc(NC(=O)C2(C)CCN2C(=O)Cc2ccc(C(C)(C)C)cc2)cc1` (stereo not drawn) was run?
Answer: The Potency was inconclusive [inhibitor, partial curve, poor fit].

Question: For `COc1cccc(NC(=O)CSc2nc(C)cs2)c1`, which Potency is on record?
Answer: Its Potency is inconclusive [inhibitor, single point].

Question: With `CCCc1ccc(OCC(O)CN2CCN(C(=O)OCC)CC2)cc1` (stereo not drawn) as the compound, how does the Potency read?
Answer: The Potency was inconclusive [inhibitor, single point].

Question: For `COc1cccc(-c2nnc(-c3ccc4ccccc4c3)o2)c1`, which Potency is on record?
Answer: The Potency was inconclusive [inhibitor, single point].

Question: For `COc1cccc(-n2cc(C(=O)NCCc3cccc(C)c3)c3ccccc3c2=O)c1`, which Potency is on record?
Answer: Its Potency is inconclusive [inhibitor, single point].

Question: How did the Potency turn out when `O=C(Nc1cc(Cl)cc(Cl)c1)C1C2C=CC3(O2)C1C(=O)N(CCCN1CCOCC1)C3C(=O)NC1CCCCC1` (stereo not drawn) was run?
Answer: The Potency was inconclusive [inhibitor, single point].

Question: `C/C(=N\NC(=O)C12CCC(C)(C(=O)O1)C2(C)C)c1ccccc1O` (stereo not drawn) was tested. Which Potency did it give?
Answer: The Potency was inconclusive [inhibitor, partial curve, poor fit].

Question: Which Potency does the source give for `O=C(N/N=C/c1cccs1)c1cncc(Br)c1` here?
Answer: Its Potency is inconclusive [inhibitor, single point].

Question: `O=C(N/N=C/c1cccs1)c1cc(C2CC2)nc2ccccc12` was tested. Which Potency did it give?
Answer: Its Potency is inconclusive [inhibitor, full curve].

Question: Which Potency does the source give for `CC(C)N=C1CCCC1C(=S)SSC(=S)C1CCCC1=NC(C)C` (stereo not drawn) here?
Answer: The Potency was inconclusive [inhibitor, full curve, poor fit].

Question: `Cn1c(=O)[nH]c(=O)c2c1nc(N/N=C/C(Br)=C/c1ccccc1)n2CCO` was tested. Which “activity change, negative = inhibition” value did it give?
Answer: Its value is inactive: 82%.

Question: With `O=C(CC1c2cc(F)ccc2C=C(c2ccsc2)N1c1ccc(C#CCCO)cc1)c1ccco1` (stereo not drawn) as the compound, how does the Potency read?
Answer: Its Potency is inconclusive [inhibitor, partial curve, poor fit].

Question: Which Potency does the source give for `CSc1ccc(CCNC(=O)c2sc3ncccc3c2-n2cccc2)cc1` here?
Answer: Its Potency is inconclusive [inhibitor, single point].

Question: Which Potency does the source give for `COc1ccc(C2NCCc3sccc32)cc1` (stereo not drawn) here?
Answer: The Potency was inconclusive [inhibitor, single point].

Question: How did the Potency turn out when `CC1(C)CC2CC(C)(CN2C(=O)COC(=O)c2ccccc2C(F)(F)F)C1` (stereo not drawn) was run?
Answer: Its Potency is inconclusive [inhibitor, full curve, poor fit].

Question: For `COc1ccc(Cc2nnc(NC(=O)CSc3ccccc3)s2)cc1`, which “activity change, negative = inhibition” value is on record?
Answer: The value was inactive: -7.76%.

Question: Which Potency does the source give for `Nc1nonc1-n1nnc(C(=O)N/N=C/c2cccc(Cl)c2)c1-c1cccs1` here?
Answer: Its Potency is inconclusive [inhibitor, partial curve, poor fit].

Question: How did the Potency turn out when `CC(/C=C/c1ccco1)=N\NC(=O)c1cccc(Cl)c1` was run?
Answer: The Potency was inconclusive [inhibitor, single point].

Question: With `CCc1cccc2c(C(=S)N3CCCC3)c[nH]c12` as the compound, how does the Potency read?
Answer: Its Potency is inconclusive [inhibitor, partial curve, poor fit].

Question: How did the “activity change, negative = inhibition” value turn out when `CCOc1ccc(C(=O)Nc2cccc(-c3cc4ccccc4oc3=O)c2)cc1[N+](=O)[O-]` was run?
Answer: Its value is inactive: -17.1%.

Question: How did the Potency turn out when `Cc1cccc(NC(=O)CCC2CCN(Cc3nccs3)CC2)c1` was run?
Answer: The Potency was inconclusive [inhibitor, partial curve].

Question: `O=C(N/N=C/c1c[nH]c2ccccc12)c1cc(-c2ccc3ccccc3c2)n[nH]1` was tested. Which Potency did it give?
Answer: The Potency was inconclusive [inhibitor, partial curve, poor fit].

Question: How did the Potency turn out when `C=CCn1c(COc2cccc(C)c2)nnc1SCn1nnc2ccccc2c1=O` was run?
Answer: The Potency was inconclusive [inhibitor, single point].

Question: `Cc1cccc(-n2c(SCC(=O)Nc3ccccc3Cl)nc3n[nH]c(C)c3c2=N)c1` was tested. Which Potency did it give?
Answer: The Potency was inconclusive [inhibitor, single point].

Question: For `O=C1CC2(CCN(C(=O)c3c(F)cccc3Cl)CC2)Oc2ccccc21`, which Potency is on record?
Answer: Its Potency is inconclusive [inhibitor, partial curve, poor fit].

Question: `COc1cccc(C(=O)Nc2ccc3nc(SCc4ccc(C)cc4)sc3c2)c1` was tested. Which Potency did it give?
Answer: Its Potency is inconclusive [inhibitor, partial curve].

Question: For `CCNc1nc(SCC(=O)Nc2ccccc2)nc(N2CCOCC2)n1`, which “activity change, negative = inhibition” value is on record?
Answer: Its value is inactive: 114%.

Question: Which Potency does the source give for `Cn1nc(-c2ccccc2)c(-c2ccccc2)c(C(=O)Nc2ccc(S(N)(=O)=O)cc2)c1=O` here?
Answer: The Potency was inconclusive [inhibitor, single point].

Question: With `CN=c1scc(-c2cccs2)n1/N=C/c1ccccc1O` as the compound, how does the Potency read?
Answer: Its Potency is inconclusive [inhibitor, full curve, poor fit].

Question: Which “activity change, negative = inhibition” value does the source give for `O=C(NCC[C@H]1CC[C@@H](NC(=O)C2CCC2)[C@@H](CO)O1)c1cc(Cl)cc(Cl)c1` here?
Answer: Its value is inactive: 4.07%.

Question: `O=C(CSc1ccccn1)c1ccc2c(c1)OCO2` was tested. Which “activity change, negative = inhibition” value did it give?
Answer: The value was inactive: 0%.

Question: `CNc1ccc(Br)cc1C(O)c1ccccc1` (stereo not drawn) was tested. Which Potency did it give?
Answer: Its Potency is inconclusive [inhibitor, single point].

Question: Which Potency does the source give for `COc1ccc2oc(C(=O)N(C)CCOc3ccccc3)c(C)c2c1` here?
Answer: The Potency was inconclusive [inhibitor, single point].

Question: For `CCOc1ccc(Nc2c(S(=O)(=O)c3ccc(C)cc3)cnc3ccc(OC)cc23)cc1`, which Potency is on record?
Answer: Its Potency is inconclusive [inhibitor, single point].

Question: `Cc1ccc(C2(CCNS(=O)(=O)c3ccc(C)cc3)CCOC(C(C)C)C2)cc1` (stereo not drawn) was tested. Which Potency did it give?
Answer: The Potency was inconclusive [inhibitor, single point].

Question: Which Potency does the source give for `COc1ccc(N(CC(=O)Nc2cccc(N(C)S(C)(=O)=O)c2)S(=O)(=O)c2ccc(F)cc2)cc1` here?
Answer: The Potency was inconclusive [inhibitor, partial curve, poor fit].

Question: How did the Potency turn out when `CC(C)(C)c1ccccc1OCCOCCN1CCCCCC1` was run?
Answer: Its Potency is inconclusive [inhibitor, partial curve, poor fit].

Question: `CCc1ccc(OC2(C)CCN(Cc3ccccc3OC(F)F)C2)cc1` (stereo not drawn) was tested. Which Potency did it give?
Answer: Its Potency is inconclusive [inhibitor, partial curve, poor fit].

Question: Which Potency does the source give for `CCOc1nc(NC2CCCC2)nc(N2CCC(C)CC2)n1` here?
Answer: The Potency was inconclusive [inhibitor, partial curve, poor fit].

Question: With `COc1cccc(CNc2nc3ccccc3n2C)c1O` as the compound, how does the “activity change, negative = inhibition” value read?
Answer: Its value is inactive: -29.3%.

Question: How did the “activity change, negative = inhibition” value turn out when `O=C(Nc1ccccc1)C1Cc2c(-c3ccco3)ccnc2O1` (stereo not drawn) was run?
Answer: Its value is inactive: 13.1%.

Question: `O=c1c2ccccc2[nH]c(=S)n1CCCN1CCN(c2ccccc2)CC1` was tested. Which Potency did it give?
Answer: The Potency was inconclusive [inhibitor, full curve, poor fit].

Question: How did the Potency turn out when `COc1ccccc1NC(=S)N(Cc1ccco1)Cc1cc2cc(C)c(C)cc2[nH]c1=O` was run?
Answer: Its Potency is inconclusive [inhibitor, full curve, poor fit].

Question: How did the Potency turn out when `O=C(Cn1nc(C(F)F)cc1C1CC1)NCCC1=CCCCC1` was run?
Answer: The Potency was inconclusive [inhibitor, partial curve, poor fit].

Question: For `O=C(CSc1nnc(CN2CCOCC2)n1-c1ccccc1)Nc1ccc(Cl)cc1`, which Potency is on record?
Answer: The Potency was inconclusive [inhibitor, partial curve, poor fit].

Question: Which Potency does the source give for `O=C1c2ccccc2C(=O)N1CCCSc1nc2ccccc2o1` here?
Answer: Its Potency is inconclusive [inhibitor, single point].

Question: Which Potency does the source give for `Cc1ccc(NC(=O)COc2ccccc2C=O)cc1Cl` here?
Answer: Its Potency is inconclusive [inhibitor, single point].

Question: For `CC1CCCCN1CC(=O)Nc1ccccc1Sc1ccccc1` (stereo not drawn), which Potency is on record?
Answer: Its Potency is inconclusive [inhibitor, single point].

Question: How did the Potency turn out when `Cc1ccc(-n2ncc3c(N4CCN(C)CC4)ncnc32)cc1` was run?
Answer: The Potency was inconclusive [inhibitor, partial curve, poor fit].

Question: With `CC(c1ccccc1)n1c(CO)nc2ccccc21` (stereo not drawn) as the compound, how does the Potency read?
Answer: The Potency was inconclusive [inhibitor, full curve, poor fit].

Question: Which Potency does the source give for `CCCCn1nc2cc(C(=O)NCCc3cccs3)ccc2c1OCC` here?
Answer: Its Potency is inconclusive [inhibitor, partial curve].

Question: How did the Potency turn out when `O=C(c1ccccc1)c1ccc(NCCCn2ccnc2)c([N+](=O)[O-])c1` was run?
Answer: The Potency was inconclusive [inhibitor, full curve, poor fit].

Question: For `COc1ccc(C(=O)c2nc3c(n2O)CCCCC3)cc1`, which “activity change, negative = inhibition” value is on record?
Answer: The value was inactive: -13.5%.
